Source: PubChem BioAssay AID1508623 (National Center for Advancing Translational Sciences (NCATS), 2021)
The campaign covered roughly 48,000 compounds. About 450 (0.94%) were called active. Another 19% or so got no clear call; they are omitted. Calls follow the shape of the dose curve; as a rule, active = well fitted inhibition curve with a large enough effect; inconclusive = small, poorly fitted or top-dose-only effect; inactive = no such curve, though single readings can be large or run the other way. Some of the results follow.

Assay: Primary qHTS for Identification of Small Molecule Inhibitors of Huntingtin Promoter Activity; also: nearly all actives have a fitted effect of over 50% in size
Details: HEK293 HTT promoter firefly luciferase reporter (activity 0% = vehicle and -100% = no light), 24 h; series mostly up to 57.5 µM; activity change, negative = inhibition: at the top concentration
In short: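 Firefly luciferase signal from promoter-reporter HEK293 cells was scaled between vehicle (0%) and zero RLU (-100%). Compounds were tested at final concentrations of up to 57.5 uM over 24 h at 37 degrees C. PTC124 at 50 uM final served as control inhibitor.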
With `Cc1cccc(N2CCN(S(=O)(=O)c3ccc4c(c3)CCCN4C(=O)C3CCC3)CC2C)c1` (configuration not stated) the “activity change, negative = inhibition” value was inactive: -22.9%. In the case of `COc1ccc(Cn2c(=O)[nH]c3cc(C(=O)N4CCN(c5cccc(Cl)c5)CC4)ccc3c2=O)cc1`, the “activity change, negative = inhibition” value is reported as inactive: -11.1%. For `Cn1c(=O)n(-c2ccc(Br)cc2F)c(=O)c2sc3ccccc3c21`, the “activity change, negative = inhibition” value was inactive: -9.34%. In the case of `COc1cc2c(=O)c(S(=O)(=O)c3ccc(F)cc3)cn(Cc3ccc(Cl)cc3)c2cc1OC`, the “activity change, negative = inhibition” value is reported as inactive: -7.34%. In the case of `O=C(NC1CCCCCC1)c1ccc2c(c1)sc1nc(-c3ccc(F)cc3)cn12`, the “activity change, negative = inhibition” value is reported as inactive: -0.069%. For `O=C(Nc1ccc(C(=O)OCc2cc(=O)n3c4c(sc3n2)CCCC4)cc1)c1ccccc1`, the “activity change, negative = inhibition” value was inactive: -9.78%. With `CC1(C)O[C@@H]2C[C@H]3[C@@H]4CCC5=CC(=O)CC[C@]5(C)[C@@]4(F)[C@@H](O)C[C@]3(C)[C@]2(C(=O)CCl)O1` the “activity change, negative = inhibition” value was inactive: -4.28%. With `COc1ccc(C2C(C(N)=O)=C(C)Nc3nc(CCCO)nn32)c(OC)c1` (configuration not stated) the “activity change, negative = inhibition” value was inactive: -5.01%. For `COc1ccc(CCNC(=O)c2cnc3ccc(C)cn3c2=O)cc1`, the “activity change, negative = inhibition” value was inactive: -2.15%. With `CCCS(=O)(=O)c1c(S(=O)(=O)CCC)c2cc(CC)ccn2c1C(=O)c1ccc(OC)cc1` the “activity change, negative = inhibition” value was inactive: -17.6%. With `COc1cccc(Cn2nnc(C(=O)Nc3cc(C)ccc3C)c2N)c1` the “activity change, negative = inhibition” value was inactive: -25.9%. In the case of `CCOc1ccc(NC(=O)N2CCC(C(N)=O)(N3CCCCC3)CC2)cc1`, the “activity change, negative = inhibition” value is reported as inactive: -7.76%. For `O=C(NC1CC(=O)N(c2cccc(F)c2)C1)c1ccc(S(=O)(=O)N2CCCC2)cc1` (configuration not stated), the “activity change, negative = inhibition” value was inactive: -18%. In the case of `O=C(Cn1c(=O)n(Cc2ccccc2)c(=O)c2sc3ccccc3c21)NCc1ccccc1Cl`, the “activity change, negative = inhibition” value is reported as inactive: -15.3%. In the case of `O=C(CCc1nc(-c2cccs2)no1)Nc1ccccc1[N+](=O)[O-]`, the “activity change, negative = inhibition” value is reported as inactive: 0.523%. With `Cc1ccn2c(=O)c(C(=O)NCCc3ccccc3)c(O)nc2c1` the “activity change, negative = inhibition” value was inactive: 0.417%. For `Cc1ccc2nc(NC(=O)CSc3nccn3Cc3ccc(Cl)cc3)sc2c1`, the “activity change, negative = inhibition” value was inactive: -26.6%. For `O=C(Nc1cccc(Cl)c1)N1CCSc2ccccc21`, the “activity change, negative = inhibition” value was inactive: -4.81%. In the case of `CCN(CC)c1cc(C)c2cc(NC(=O)c3cccc(F)c3)ccc2n1`, the “activity change, negative = inhibition” value is reported as inactive: -3.63%. With `CCOC(=O)c1cnc2c(ccc3ccccc32)c1Nc1ccccc1OCC` the “activity change, negative = inhibition” value was inactive: 0.116%. With `COCCCNC(=O)CS(=O)Cc1nc(-c2cccc(C)c2)oc1C` (configuration not stated) the “activity change, negative = inhibition” value was inactive: 2.54%. In the case of `CC(NC(=O)CCCC1=NS(=O)(=O)c2ccccc2N1)c1ccccc1` (configuration not stated), the “activity change, negative = inhibition” value is reported as inactive: -1.52%. In the case of `CCCn1cc(S(=O)(=O)c2ccccc2)c(=O)c2cc(F)c(N3CCCCC3)cc21`, the “activity change, negative = inhibition” value is reported as inactive: -9.22%. For `Cc1ccc(NC(=O)C2CCN(c3nc4ccccc4nc3C(F)(F)F)CC2)cc1F`, the “activity change, negative = inhibition” value was inactive: -9%. For `CCC(C)n1c(=N)c(C(=O)NCc2ccccc2)cc2c(=O)n3cc(C)ccc3nc21` (configuration not stated), the “activity change, negative = inhibition” value was inactive: -2.44%. For `COc1ccc(C(=O)Nc2nnc(S(=O)(=O)N3CCCCCC3)s2)cc1OC`, the “activity change, negative = inhibition” value was inactive: -18.3%. In the case of `Cc1ccc(CNC(=O)CCc2c(C)nc3c(c(C)nn3-c3ccccc3)c2C)cc1`, the “activity change, negative = inhibition” value is reported as inactive: 1.17%. With `CCN(CC)C(=O)/C(C#N)=C/c1cc(O)c(O)c([N+](=O)[O-])c1` the “activity change, negative = inhibition” value was inactive: -3.05%. In the case of `COc1ccc(C(=O)c2oc3ccccc3c2NC(=O)COc2ccccc2)cc1`, the “activity change, negative = inhibition” value is reported as inactive: 4.93%. For `COc1ccc(CCNC(=O)c2sc3nc4n(c(=O)c3c2C)CCCC4)cc1OC`, the “activity change, negative = inhibition” value was inactive: 19.6%. With `CCc1cccc(C)c1NC(=O)CC1Oc2ccc(C)cc2NC1=O` (configuration not stated) the “activity change, negative = inhibition” value was inactive: -6.62%. With `O=C(COc1ccc(Cl)cc1)OCc1cc(=O)n2nc(-c3cccs3)sc2n1` the “activity change, negative = inhibition” value was inactive: -1.8%. With `CC(C)n1c(=N)c(C(=O)NCc2cccnc2)cc2c(=O)n3ccccc3nc21` the “activity change, negative = inhibition” value was inactive: -12.8%. For `CNC(=O)C1CCC(Cn2c(=O)c3sccc3n(CC(=O)NCc3cccc(OC)c3)c2=O)CC1` (configuration not stated), the “activity change, negative = inhibition” value was inactive: -14.3%. In the case of `Cc1cc(C)cc(Nc2cc(C)nc3nncn23)c1`, the “activity change, negative = inhibition” value is reported as inactive: 10.5%. In the case of `Cc1cccc(-c2nc3scc(CCNC(=O)c4ccc(Br)o4)n3n2)c1`, the “activity change, negative = inhibition” value is reported as inactive: -18.2%. In the case of `CCC(CC)C(=O)Nc1ccc(-c2cn3cccnc3n2)cc1`, the “activity change, negative = inhibition” value is reported as inactive: 38.7%. In the case of `Nc1nc2c(c(=O)[nH]1)N(C=O)[C@H](CNc1ccc(C(=O)N[C@@H](CCC(=O)O)C(=O)O)cc1)CN2`, the “activity change, negative = inhibition” value is reported as inactive: 6.62%. In the case of `COc1ccc(CNC(=O)CN2C(=O)COc3ccc(S(=O)(=O)NC4CCCC4)cc32)cc1`, the “activity change, negative = inhibition” value is reported as inactive: -7.79%. In the case of `COc1ccc(/C=C\c2onc(C)c2S(=O)(=O)N2CCC(C(=O)Nc3cccc(Cl)c3)CC2)cc1`, the “activity change, negative = inhibition” value is reported as inactive: -20.4%. With `Cc1ccc(Nc2nnc(-c3cc4c(ccc5ccccc54)oc3=O)s2)cc1` the “activity change, negative = inhibition” value was inactive: -3.69%. With `COc1cccc(C(=O)N2CCc3c([nH]c4ccccc34)C2c2ccc(SC)cc2)c1` (configuration not stated) the “activity change, negative = inhibition” value was inactive: -21.2%. With `COc1cccc(CNC(=O)CCCN2C(=O)CCn3nc(-c4cccn4C)cc32)c1` the “activity change, negative = inhibition” value was inactive: 18%. In the case of `CCOC(=O)c1cccc(NC(=O)Cn2c(=O)nc(-c3ccccc3F)c3cc(Cl)ccc32)c1`, the “activity change, negative = inhibition” value is reported as inactive: -20.4%. In the case of `CCn1c(=O)c2cc(C(=O)N(CC(C)C)CC(C)C)sc2c2ccccc21`, the “activity change, negative = inhibition” value is reported as inactive: -11%. With `CCOc1ccc(CCNC(=O)c2csc3c2CCCCC3)cc1` the “activity change, negative = inhibition” value was inactive: -12.3%. With `CCN(C(=O)CSc1nc2ccccc2n1CC(=O)NCc1ccc(OC)cc1)c1ccccc1` the “activity change, negative = inhibition” value was inactive: -15.7%.
